Measured values reported in PubChem BioAssay AID1984 (Sanford-Burnham Center for Chemical Genomics, 2009).
This is one part of the list. The main result of the screen is listed elsewhere. These columns were measured beside it and carry no call.

Target: p/CIP-EGFP fusion (nuclear receptor coactivator 3, mouse) (UniProt Q05BA5)
Test: compounds lowering mouse p/CIP (NCOA3) protein levels – fluorescence, F442A cells, EGFP fusion, primary screen (AID 1984)
Settings: 16 h
[1] = measured here: confirmation repeats at 10 uM, at 10 µM
[2] = measured here: confirmation repeats at 20 uM, at 20 µM

| Compound | decrease of EGFP signal [1] | decrease of EGFP signal [2] |
| --- | --- | --- |
| Cc1ccc(NC2=C/C(=N\S(=O)(=O)c3cccs3)c3ccccc3C2=O)c(C)c1 | 25.3% | 35.7% |
| O=C1C(Cl)=C(NCCN2CCCCC2)C(=O)c2ccccc21 | 13.7% | 70.3% |
| O=C1C(Nc2ccccc2)=C/C(=N/S(=O)(=O)c2cccs2)c2ccccc21 | 34.6% | 42.2% |
| CC(C)(C)c1cc[n+](C2=C([O-])c3ccccc3C(=O)/C2=N\S(=O)(=O)c2cccs2)cc1 | 13.1% | 47.3% |
| CCCc1nc2c(=O)n(C)c(=O)nc-2n(C)n1 | 40.8% | 39.5% |
| COc1ccc(CS(=O)/C(Cl)=C(/Cl)C(=O)Nc2ccc(OC)nc2)cc1 (stereo not drawn) | 8.9% | 38.4% |
| CCOC(=O)c1c(C)[nH]c2c1-c1ccccc1C(=O)C2=O | 69.2% | 68.4% |
| O=C1C(Nc2ccc(O)cc2)=C/C(=N/S(=O)(=O)c2cccs2)c2ccccc21 | 42.7% | 38.5% |
| Cc1ccccc1NC1=C/C(=N\S(=O)(=O)c2cccs2)c2ccccc2C1=O | 30.7% | 34.6% |
| COc1ccc(NC(=O)/C(Cl)=C(/Cl)S(=O)Cc2ccc(Cl)cc2)cn1 (stereo not drawn) | -8% | 49% |
| CCOC(=O)N=Nc1c2ccccc2c2nc3no[nH]c3nc12 | 32.5% | 35.6% |
| CC1CCN(S(=O)(=O)c2ccc3c(c2)C(=NO)c2cc(S(=O)(=O)N4CCC(C)CC4)ccc2-3)CC1 | 72.4% | 71.9% |
| Cc1oc2c(c1C(=O)NCc1cccnc1)C(=O)c1ccccc1C2=O | 43.5% | 37.2% |
| Nc1ccc2c(c1)C(=O)C(=O)c1ccccc1-2 | 59% | 40.4% |
